Experimental data published in the supplement of paper PMC4466236.
In all, about 33,000 sequences were measured (“E-score (dimensionless, -0.5 to 0.5)”: median about -0.058, highest 2% from about 0.35 on). The list shows a part of the results.

tested on: MvaT; assay: PBM 8-mer E-score (mean of HK and ME arrays) (E-score (dimensionless, -0.5 to 0.5)); higher = stronger relative binding preference; most listed sequences are background and not binding sites
Procedure: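 Protein binding microarray: GST-tagged full-length MvaT (P. aeruginosa PAO1) bound to two universal double-stranded 60-mer arrays (ME and HK), each with a constant 25-mer primer and a variable 35-mer region covering all 8-mers. The 8-mer E-score (rank-based, range -0.5 to 0.5, >0.45 = specific binding) is the mean of the two arrays.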

| Sequence | PBM 8-mer E-score |
| --- | --- |
| GCTGAGAC | -0.291 |
| AGACGGCT | -0.164 |
| GCCGGGTA | -0.189 |
| ACACTTGC | -0.00708 |
| GTATAACA | 0.3 |
| GGCGTGAC | -0.179 |
| GATGCCGA | -0.114 |
| GCTGGAGA | -0.0991 |
| AACATCCT | -0.00268 |
| AAACCGGT | 0.036 |
| CCGGTTCA | -0.123 |
| CGTCCGGC | -0.16 |
| GAAGAGGC | -0.298 |
| ATCCAACC | -0.00524 |
| AGCGTAGG | -0.192 |
| GCGGTCCA | -0.254 |
| GAGGTCAA | -0.137 |
| ATGGTTCA | -0.0265 |
| CGGAAGGA | -0.287 |
| ACTGATAC | 0.105 |
| ATTGACAC | 0.0827 |
| AAATCTGC | 0.075 |

| Sequence | PBM 8-mer E-score |
| --- | --- |
| GCTCGCCC | -0.317 |
| AACCCGTA | 0.0698 |
| CTGAGCGC | -0.179 |
| AAGGAGTC | -0.047 |
| CTAGCATA | -0.00639 |
| GATAACTA | 0.198 |
| AAAATGCC | 0.129 |
| CTTGATCC | -0.181 |
| AAATGGTA | 0.105 |
| GTTCACAA | 0.0178 |
| CCTTAGAA | -0.00735 |
| GCCTCGGA | -0.221 |
| ACACACAT | 0.0835 |
| GACTCTCA | -0.237 |
| CAGTTGAG | 0.00623 |
| GGTTCTTA | -0.0316 |
| AGATCACT | -0.17 |
| GCTGCGAA | -0.0778 |
| CGACACAA | 0.0853 |
| ACACAGCC | 0.0184 |
| AGGTCGTC | -0.17 |
| AATCACAT | 0.146 |

| Sequence | PBM 8-mer E-score |
| --- | --- |
| AAGTACTT | 0.41 |
| CAGATAGC | -0.122 |
| GGCCGGGA | -0.246 |
| TACGTCTA | -0.0551 |
| TGTTAACA | 0.33 |
| ACTTTTAG | 0.112 |
| CATCTAGA | 0.0186 |
| ATGGTCGC | -0.162 |
| CATTGGCC | -0.265 |
| GGATATAA | 0.307 |
| CCTACCCA | -0.126 |
| GCTAGGAC | -0.282 |
| TCCCTCAA | -0.062 |
| ACGTGTCG | -0.24 |
| GATTCGGA | -0.0859 |
| CCATGATA | 0.0911 |
| AGAGACCT | -0.199 |
| ATACTCAG | 0.117 |
| ACATAAGC | 0.247 |
| GTGCACCA | -0.137 |
| ATGGTCTC | -0.117 |
| ATCGAGCA | -0.175 |

| Sequence | PBM 8-mer E-score |
| --- | --- |
| GGAGCCAC | -0.325 |
| ACTATTAT | 0.425 |
| ACTGGTTC | -0.122 |
| CCGCTGCG | -0.342 |
| CGCAGGCA | -0.137 |
| ATACGTAA | 0.223 |
| CCAACCAG | -0.21 |
| CAAATGGG | -0.111 |
| CACGCCGA | -0.0648 |
| GGGCACCA | -0.15 |
| CGGTCGCA | -0.119 |
| GTTCCACA | -0.0268 |
| CCGACACG | -0.209 |
| ATGGGTGA | -0.0345 |
| CTCTCTAC | -0.0519 |
| CCGGCGAA | -0.244 |
| CGGTCCCA | -0.0584 |
| AATCCGGG | -0.0785 |
| ACCCTGTC | -0.211 |
| AGTAAGTA | 0.273 |
| CGGCTACA | -0.125 |
| GCTTTTCA | 0.0405 |

| Sequence | PBM 8-mer E-score |
| --- | --- |
| AGGCACTC | -0.205 |
| CTCTCCCC | -0.109 |
| CGTCACGA | -0.187 |
| GTCACGTA | -0.086 |
| CTCGCGAG | -0.156 |
| AATGTTGT | 0.204 |
| AATAGATA | 0.228 |
| ATTCTTAG | 0.213 |
| ACAAACTA | 0.337 |
| GGCATCTA | -0.0751 |
| GGACGTCA | -0.268 |
| AATTCTCG | 0.0899 |
| CCCCCGTC | -0.241 |
| ACACCCTG | -0.0696 |
| GGCATGAA | 0.02 |
| GATTAACC | 0.0145 |
| AATGCAAA | 0.15 |
| AATGTAAT | 0.365 |
| AGAACGCC | -0.0907 |
| CCGCGTCC | -0.275 |
| TCTGGCAA | 0.0132 |
